Measurements reported in paper PMC9607282 (Pharmaceutics, 2022).

Columns and labels:
[1] = Pharmacokinetics in plasma and PELF of pigs infected with G. parasuis H78 after intramuscular injection; conditions: pig, in vivo, im; for AUC(0-t): AUC 24h; for AUC(0-t) / Cmax / MRT last / Tmax: infected group, ADP/SMZ injection 5/25 mg/kg b.w. i.m., n = 6; for MRT last: MRT 24h
Method: (§1) Twenty-four pigs were randomly divided into 4 groups with 3 healthy groups and 1 infected group. […] The infected group was infected with G. parasuis H78 for 3 days.
(§2) Add 3 mL of a mixture of dichloromethane and acetonitrile, and vortex centrifuge for 5 min at 10,000 rpm for 10 min. Remove the supernatant into a 10 mL centrifuge tube. Add 3 mL of dichloromethane and acetonitrile to the residue. Extract once again as described above. Combine the supernatant twice, and dissolve the residue with 1 mL of the initial mobile phase. Vortex to mix. Add 1 mL of n-hexane, remove the n-hexane layer (upper layer) to achieve the purpose of degreasing, and then use a 0.22-μm filter membrane to obtain a sample purification solution.
(§3) A C18 reverse phase column (250 mm × 4.6 mm, i.d., 5 µm, Agilent, Santa Clara, CA, USA) was used for HPLC, which was executed at a detection wavelength of 270 nm at 25 °C. The mobile phase comprised 0.1% trifluoroacetic acid (phase A) and 100% methanol (phase C) with a mobile phase flow rate of 1 mL/min.
(§4) The urea dilution method was used to determine the volume of PELF as described previously. The concentration of urea and PELF were determined by the urease-glutamate dehydrogenase enzymatic method with an automatic biochemical analyzer (SYNCHRON CX4 PRO; Beckman, Brea, CA, USA) at the National Reference Laboratory of Veterinary Drug Residues (Wuhan, China).

[2] = tested on: G. parasuis H78; test: PK-PD integration, sigmoid Emax model on ex vivo time killing in PELF; type: cell-based, Glaesserella parasuis; conditions: ADP/SMZ injection 5/25 mg/kg b.w. i.m.
Method: The association between antimicrobial efficiency and the ex vivo PK-PD parameters of AUC0−24h/MIC ratios was simulated by using the model of Emax inhibitory Sigmoid.

[3] = Pharmacokinetics in plasma and PELF of healthy pigs after intramuscular injection; conditions: for AUC(0-t) / Cmax / MRT last / Tmax: pig, in vivo, im, n = 6; for AUC(0-t): AUC 24h; for MRT last: MRT 24h
Method: as §1, §2, §3, §4

[4] = PELF, healthy group, ADP/SMZ injection 5/25 mg/kg b.w. i.m.
[5] = PELF, healthy pigs, single drug i.m.: ADP 5 mg/kg b.w., SMZ 25 mg/kg b.w.
[6] = plasma, healthy group, ADP/SMZ injection 5/25 mg/kg b.w. i.m.
[7] = plasma, healthy pigs, single drug i.m.: ADP 5 mg/kg b.w., SMZ 25 mg/kg b.w.

## Cc1cc(NS(=O)(=O)c2ccc(N)cc2)no1 [SMZ, Sulfamethoxazole, reference compound]
[1]
  T 1/2λ: 8.29 ± 0.81 h
[1]; PELF
  AUC(0-t): 166 ± 12.7 µg·h/mL
  Cmax: 26400 ± 2040 ng/mL
  MRT last: 7.74 ± 0.23 h
  Tmax: 2.07 ± 0.03 h
[1]; plasma
  AUC(0-t): 124 ± 7.11 µg·h/mL
  Cmax: 16000 ± 1520 ng/mL
  MRT last: 6.48 ± 0.15 h
  Tmax: 2 h
[2]; healthy group
  (AUC24h/MIC)ex (E = 0): 18.23 h
  (AUC24h/MIC)ex (E = −3): 64.88 h
  (AUC24h/MIC)ex (E = −4): 161.81 h
  EC 50 (AUC0−24h/MIC giving 50% of Emax): 27.64 h
[2]; infected group
  (AUC24h/MIC)ex (E = 0): 17.81 h
  (AUC24h/MIC)ex (E = −3): 62.04 h
  (AUC24h/MIC)ex (E = −4): 137.28 h
  EC 50 (AUC0−24h/MIC giving 50% of Emax): 27.43 h
[3]; LOD 0.05 µg/mL, HPLC
  concentration in PELF after 36 h: below LOD
  concentration in plasma after 24 h: below LOD
[3]; [4]
  AUC(0-t): 163 ± 12.5 µg·h/mL
  Cmax: 25400 ± 2510 ng/mL
  MRT last: 7.78 ± 0.17 h
  Tmax: 2.04 ± 0.08 h
[3]; [5]
  AUC(0-t): 199 ± 10.1 µg·h/mL
  Cmax: 23400 ± 2580 ng/mL
  MRT last: 6.42 ± 0.15 h
  Tmax: 2 h
[3]; [6]
  AUC(0-t): 121 ± 10.2 µg·h/mL
  Cmax: 15700 ± 1740 ng/mL
  MRT last: 6.55 ± 0.12 h
  Tmax: 2 h
[3]; [7]
  AUC(0-t): 103 ± 8.25 µg·h/mL
  Cmax: 12600 ± 1320 ng/mL
  MRT last: 6.13 ± 0.12 h
  Tmax: 3 h
